# Assay results taken from the BET-seq Pho4 binding data (Le et al. 2018).
# The list shows a part of the results. Values were computed here from the reads of four pooled replicates and scatter widely.
# Biological target: T1, Pho4 (S. cerevisiae) (UniProt P07270)
# T1 sequence: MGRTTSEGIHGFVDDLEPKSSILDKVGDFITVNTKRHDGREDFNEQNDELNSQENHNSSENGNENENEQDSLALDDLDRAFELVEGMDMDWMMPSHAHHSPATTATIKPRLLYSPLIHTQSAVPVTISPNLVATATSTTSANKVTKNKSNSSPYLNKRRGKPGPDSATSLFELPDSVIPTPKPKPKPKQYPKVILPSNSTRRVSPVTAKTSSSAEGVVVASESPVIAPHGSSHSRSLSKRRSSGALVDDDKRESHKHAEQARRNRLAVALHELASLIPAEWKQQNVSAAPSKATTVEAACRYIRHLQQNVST
# Assay: relative binding free energy (BET-seq); higher = weaker binding
# Conditions: reference: library average
row,Sequence,relative binding free energy
1,TTTATCACGTGCAGGC,0.15 kcal/mol
2,GTGAACACGTGGCGTG,-0.13 kcal/mol
3,ATATTCACGTGTAATG,0.13 kcal/mol
4,CGAGGCACGTGGCTGG,-0.07 kcal/mol
5,GTCGTCACGTGATGTG,0.21 kcal/mol
6,TCGTTCACGTGATAAT,0.32 kcal/mol
7,GGGGCCACGTGGTAGC,-0.12 kcal/mol
8,GAGGTCACGTGGATGT,0.1 kcal/mol
9,GGCTGCACGTGGTGCT,-0.16 kcal/mol
10,TGGGTCACGTGGATCT,-0.02 kcal/mol
11,TGTTTCACGTGTTTCA,0.25 kcal/mol
12,ATTAGCACGTGTCCGG,-0.02 kcal/mol
13,TTGTACACGTGTAGCG,0.04 kcal/mol
14,GTTGTCACGTGGACGA,0.02 kcal/mol
15,GTGAGCACGTGTTGGG,-0.01 kcal/mol
16,TAAATCACGTGTTTGC,0.31 kcal/mol
17,TAGTGCACGTGGTTTC,0 kcal/mol
18,GGTAACACGTGGAGTG,-0.15 kcal/mol
19,TAAATCACGTGTTAAT,0.29 kcal/mol
20,TACAGCACGTGTGGGG,-0.11 kcal/mol
21,AGTGGCACGTGGTTTG,-0.19 kcal/mol
22,AGTAGCACGTGGCGGA,-0.03 kcal/mol
23,CGGTCCACGTGGGTAA,0.11 kcal/mol

row,Sequence,relative binding free energy
1,GTTGGCACGTGCAAAT,0.13 kcal/mol
2,CTTTGCACGTGTAGGT,-0.06 kcal/mol
3,TTATTCACGTGTAGAA,0.24 kcal/mol
4,GGGACCACGTGTTGGG,0 kcal/mol
5,ATTGGCACGTGGTAGG,-0.11 kcal/mol
6,TGGTTCACGTGGTTTC,0.32 kcal/mol
7,TAGGGCACGTGGGACA,-0.03 kcal/mol
8,ATTTCCACGTGCGGTT,0.02 kcal/mol
9,GCGGGCACGTGTATTT,0.03 kcal/mol
10,TAAGACACGTGTGGTG,0.03 kcal/mol
11,TTTAACACGTGGCTTT,-0.17 kcal/mol
12,AGGTACACGTGGATTT,0.15 kcal/mol
13,CGTAGCACGTGGTTGG,-0.11 kcal/mol
14,CACAGCACGTGTGGGG,-0.14 kcal/mol
15,TGGTGCACGTGAGATT,0.32 kcal/mol
16,TACTTCACGTGTTATA,0.07 kcal/mol
17,TGGATCACGTGCGTTA,0.1 kcal/mol
18,TTGGGCACGTGGAATA,0.05 kcal/mol
19,AGAAACACGTGAGGTT,0.32 kcal/mol
20,CTTGTCACGTGCAGTG,0.1 kcal/mol
21,TACTGCACGTGTGGCG,0.08 kcal/mol
22,TTTATCACGTGTATTC,0.09 kcal/mol
23,AGGTTCACGTGGGATG,0.28 kcal/mol

row,Sequence,relative binding free energy
1,ACATTCACGTGAGTGT,0.31 kcal/mol
2,TTAGTCACGTGTAGTA,0.19 kcal/mol
3,GACGTCACGTGTGTTT,0.35 kcal/mol
4,GGAGGCACGTGTTGCG,-0.15 kcal/mol
5,GTTAACACGTGTGGGT,0.11 kcal/mol
6,TAGATCACGTGGGGTG,0.01 kcal/mol
7,GAAGGCACGTGTATGG,-0.01 kcal/mol
8,TGCTGCACGTGGTGGG,-0.07 kcal/mol
9,GAATGCACGTGTGGTT,0.16 kcal/mol
10,GATGACACGTGGAGTA,0.11 kcal/mol
11,GCACGCACGTGAGGGG,0.08 kcal/mol
12,TTGATCACGTGGGGCT,0.18 kcal/mol
13,GCGTGCACGTGTTAAT,0.14 kcal/mol
14,ATCGGCACGTGGGTTT,-0.18 kcal/mol
15,GTATACACGTGAGTTT,0.22 kcal/mol
16,ACGGTCACGTGGGGCA,0.01 kcal/mol
17,TGGCGCACGTGTTCGG,-0.11 kcal/mol
18,CGCATCACGTGGTTTG,0.25 kcal/mol
19,TAGGTCACGTGGAGTT,0.12 kcal/mol
20,TAGGACACGTGGTAGA,-0.07 kcal/mol
21,GAAGTCACGTGCGTGT,0.09 kcal/mol
22,CGCAGCACGTGTAGGG,0.01 kcal/mol
23,GCTGACACGTGGCGTG,-0.06 kcal/mol

row,Sequence,relative binding free energy
1,TTGTTCACGTGCTCGT,0.19 kcal/mol
2,TTGCTCACGTGGATGT,0.31 kcal/mol
3,GGTGACACGTGTCTGG,0.11 kcal/mol
4,TTAAACACGTGGGTGT,-0.05 kcal/mol
5,TAGGGCACGTGATTTA,-0.06 kcal/mol
6,TTTATCACGTGTTCAG,0.12 kcal/mol
7,AAGAGCACGTGGAGAG,-0.08 kcal/mol
8,TATGACACGTGAAGTT,0.32 kcal/mol
9,TGGTCCACGTGTATGG,0.12 kcal/mol
10,TGTATCACGTGCTATT,-0.13 kcal/mol
11,GTAGCCACGTGTAGTG,0.17 kcal/mol
12,TGAAGCACGTGGTGGA,0.02 kcal/mol
13,TTTGCCACGTGGGTCT,0.02 kcal/mol
14,ATCGTCACGTGGTGTT,0.07 kcal/mol
15,ACGTGCACGTGAGTGA,0.05 kcal/mol
16,TAGCTCACGTGAGGTG,0.32 kcal/mol
17,GGAGCCACGTGTATTG,0.19 kcal/mol
18,CGCGTCACGTGAGGTG,0.34 kcal/mol
19,ACTGTCACGTGAGGTG,0.25 kcal/mol
20,TGCTTCACGTGAGGCG,0.34 kcal/mol
21,GATTGCACGTGATTTT,0.24 kcal/mol
22,ATTAGCACGTGCTTTG,-0.21 kcal/mol
23,CGTTTCACGTGCCGGG,0.31 kcal/mol

row,Sequence,relative binding free energy
1,TATGTCACGTGCTGGG,0.01 kcal/mol
2,TGGGCCACGTGAGCTT,0.17 kcal/mol
3,TGGATCACGTGTTGAG,0.15 kcal/mol
4,ATGTGCACGTGTCTTA,-0.1 kcal/mol
5,GTGTACACGTGAGCTT,0.3 kcal/mol
6,GTGCCCACGTGGTTGG,-0.07 kcal/mol
7,AAATTCACGTGTTGTC,0.24 kcal/mol
8,TTAATCACGTGGGGCG,0 kcal/mol
9,TAAGGCACGTGTATCG,-0.09 kcal/mol
10,CTTTACACGTGGAAGT,0.12 kcal/mol
11,TGTAACACGTGTATGT,-0.01 kcal/mol
12,AAGGGCACGTGTCTAT,-0.06 kcal/mol
13,GGGCACACGTGGTGTA,0.01 kcal/mol
14,GTATACACGTGTGTAG,0.01 kcal/mol
15,GTGATCACGTGGTGCA,0.02 kcal/mol
16,TAAGTCACGTGCGCGT,0.09 kcal/mol
17,TCCGGCACGTGTGGGT,-0.04 kcal/mol
18,TAAGTCACGTGTAAGG,0.11 kcal/mol
19,ATTTGCACGTGCTTTT,-0.09 kcal/mol
20,TGTATCACGTGACTTT,0.18 kcal/mol
21,GTTGGCACGTGTTGGG,0.05 kcal/mol
22,CTTGTCACGTGGCTAG,0.04 kcal/mol
23,TTCGTCACGTGGTGTG,0.06 kcal/mol
